Experimental data reported in article PMC4336329 (PLoS ONE, 2015).
The whole screen tested about 310,000 compounds, of which about 2,200 (0.71%) showed an effect of 50% or more. Effects have a minus sign here. The list shows a part of the results.

What follows are compounds tested against human ether-à-go-go-related gene (hERG) potassium channel (human, UniProt Q12809) (assay: primary screen, population patch clamp on CHO cells stably expressing hERG).
Sequence of human ether-à-go-go-related gene (hERG) potassium channel (Q12809 whole entry, looked up): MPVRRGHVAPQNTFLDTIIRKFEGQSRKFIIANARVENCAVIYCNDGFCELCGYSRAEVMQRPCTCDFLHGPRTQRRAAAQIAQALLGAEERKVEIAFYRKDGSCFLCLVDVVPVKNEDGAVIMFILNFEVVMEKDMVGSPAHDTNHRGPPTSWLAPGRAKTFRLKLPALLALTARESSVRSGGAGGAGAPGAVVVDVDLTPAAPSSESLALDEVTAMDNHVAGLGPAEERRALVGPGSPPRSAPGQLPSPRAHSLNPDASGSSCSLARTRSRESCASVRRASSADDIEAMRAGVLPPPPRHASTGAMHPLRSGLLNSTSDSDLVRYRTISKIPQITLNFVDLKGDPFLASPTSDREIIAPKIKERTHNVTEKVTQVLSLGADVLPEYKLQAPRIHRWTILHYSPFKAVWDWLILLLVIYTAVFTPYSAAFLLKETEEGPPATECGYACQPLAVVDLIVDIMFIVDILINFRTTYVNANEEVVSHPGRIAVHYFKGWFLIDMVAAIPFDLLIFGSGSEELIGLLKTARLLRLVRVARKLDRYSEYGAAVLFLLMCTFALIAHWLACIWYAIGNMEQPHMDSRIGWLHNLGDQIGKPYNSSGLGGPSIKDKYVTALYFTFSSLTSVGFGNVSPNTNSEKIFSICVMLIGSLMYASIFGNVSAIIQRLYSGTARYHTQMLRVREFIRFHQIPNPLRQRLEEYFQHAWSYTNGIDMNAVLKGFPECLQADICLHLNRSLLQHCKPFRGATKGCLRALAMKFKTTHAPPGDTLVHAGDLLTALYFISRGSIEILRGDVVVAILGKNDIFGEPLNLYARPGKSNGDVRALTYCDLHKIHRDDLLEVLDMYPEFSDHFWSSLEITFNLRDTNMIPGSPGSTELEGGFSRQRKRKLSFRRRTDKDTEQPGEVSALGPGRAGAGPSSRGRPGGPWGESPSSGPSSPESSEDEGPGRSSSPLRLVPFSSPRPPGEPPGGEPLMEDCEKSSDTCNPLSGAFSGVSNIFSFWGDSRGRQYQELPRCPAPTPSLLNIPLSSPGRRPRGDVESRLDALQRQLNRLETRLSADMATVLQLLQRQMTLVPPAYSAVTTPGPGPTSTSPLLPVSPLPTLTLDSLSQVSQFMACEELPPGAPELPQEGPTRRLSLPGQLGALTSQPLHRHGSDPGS
O=C(COC(=O)c1c(Cl)cccc1Cl)Nc1cccc(S(=O)(=O)NC2=NCCCCC2)c1 was tested, and the “hERG current change (%, negative = inhibition) at 1uM” value was -5.08%. For COCC(=O)Nc1sc2c(c1C(=O)OC)C(C(=O)OC)CC2 (centres unmarked), the “hERG current change (%, negative = inhibition) at 1uM” value was 6.15%. With CCOc1ccc(C(=O)NC(=S)Nc2ccccn2)cc1[N+](=O)[O-] the “hERG current change (%, negative = inhibition) at 1uM” value was 3.95%. For CC(C)=CCN1CCN(Cc2ccc(C)s2)CC1CCO (centres unmarked), the “hERG current change (%, negative = inhibition) at 1uM” value was 3.12%. In the case of CC(NC(=O)C1CCN(C(=O)c2cccs2)CC1)c1ccc(S(N)(=O)=O)cc1 (centres unmarked), the “hERG current change (%, negative = inhibition) at 1uM” value is reported as 9.45%. With Cn1c(/C=C/c2ccc(Cl)cc2)nc2ccccc2c1=O the “hERG current change (%, negative = inhibition) at 1uM” value was 19%. In the case of Cc1csc(NC(=O)CSc2nc(=O)n(CCN(C)C)c3c2CCCC3)n1, the “hERG current change (%, negative = inhibition) at 1uM” value is reported as -15.3%. CNC(=S)N1CCN(c2cccc(OC)c2)CC1 was tested, and the “hERG current change (%, negative = inhibition) at 1uM” value was 7.07%. In the case of CC(C)(C)c1ccc(C(=O)NCc2ccco2)cc1, the “hERG current change (%, negative = inhibition) at 1uM” value is reported as 11.7%. For Cc1ccc(C)n1-c1ccc(-c2ccn[nH]2)cc1, the “hERG current change (%, negative = inhibition) at 1uM” value was 10.5%. In the case of CC(C)/C=C/C(=O)N1CCCC(N2CCN(c3ccccc3F)CC2)C1 (centres unmarked), the “hERG current change (%, negative = inhibition) at 1uM” value is reported as 7.09%. Cc1cc(C(=O)NCCC2=CCCCC2)no1 was tested, and the “hERG current change (%, negative = inhibition) at 1uM” value was -2.61%. For COC(=O)c1ccc(NC(=O)COC(=O)C2CCC2)cc1, the “hERG current change (%, negative = inhibition) at 1uM” value was 8.03%. With CCOc1ccc(NC(=O)CN(C)C(=O)c2cc(C)nc3ccccc23)cc1OCC the “hERG current change (%, negative = inhibition) at 1uM” value was 7.56%. With Cc1cc(C(=O)COC(=O)COc2ccc(C#N)cc2)c(C)n1C1CC1 the “hERG current change (%, negative = inhibition) at 1uM” value was 25.9%. For O=C1CC(c2ccccc2)CC(O)=C1C=NCCCO (centres unmarked), the “hERG current change (%, negative = inhibition) at 1uM” value was 8.58%. With COc1cc(NC(=O)C/C(C)=N/NC(=O)c2ccccn2)c(OC)cc1Cl the “hERG current change (%, negative = inhibition) at 1uM” value was 2.16%. For CCOC(=O)COc1ccc(S(=O)(=O)N2CCN(c3ccc(F)cc3)CC2)cc1, the “hERG current change (%, negative = inhibition) at 1uM” value was -15.5%. In the case of O=C(CCN1C(=O)[C@@H]2Cc3ccccc3CN2C1=O)NCc1ccccc1, the “hERG current change (%, negative = inhibition) at 1uM” value is reported as 17.8%. In the case of COc1ccc2nc(C)cc(SCC(=O)N/N=C/c3c(OC)ccc4ccccc34)c2c1, the “hERG current change (%, negative = inhibition) at 1uM” value is reported as 19%. In the case of C[N+]1(CC(O)COc2ccccc2)CCN(C(=O)c2ccc([N+](=O)[O-])cc2)CC1.[I-] (centres unmarked), the “hERG current change (%, negative = inhibition) at 1uM” value is reported as 8.72%. For CCOC(=O)N1CCN(S(=O)(=O)c2ccc3c(c2)CCN3C(=O)C2CC2)CC1, the “hERG current change (%, negative = inhibition) at 1uM” value was -6.05%. For O=C(CNC(=O)c1ccccc1)N/N=C/c1cc(Br)ccc1O, the “hERG current change (%, negative = inhibition) at 1uM” value was 7.62%. For CCOc1cc(/C=N/NC(=O)c2ccc(CN3CCOCC3)cc2)ccc1OCc1ccccc1, the “hERG current change (%, negative = inhibition) at 1uM” value was -5.56%. With COc1ccc2oc(C(=O)N3CCN(C(c4ccccc4)c4ccccc4)CC3)c(C)c2c1 the “hERG current change (%, negative = inhibition) at 1uM” value was -5.15%. S=C(NCc1ccccc1Cl)Nc1ccccc1Cl was tested, and the “hERG current change (%, negative = inhibition) at 1uM” value was 3.62%. For CCCn1c(=O)c(C(=O)NCc2ccncc2)c(O)c2ccccc21, the “hERG current change (%, negative = inhibition) at 1uM” value was -5.39%. Cc1c(Br)c([N+](=O)[O-])nn1C(C)C(=O)NCc1cccnc1 (centres unmarked) was tested, and the “hERG current change (%, negative = inhibition) at 1uM” value was -7.67%. For Cc1oc2cc3oc(=O)c(CC(=O)NCC(=O)N[C@@H](C(=O)O)c4ccccc4)c(C)c3cc2c1C, the “hERG current change (%, negative = inhibition) at 1uM” value was 8.06%. With O=C(O)C(=O)O.O=S(=O)(c1ccccc1F)N1CCN(Cc2nc3ccccc3[nH]2)CC1 the “hERG current change (%, negative = inhibition) at 1uM” value was -6.09%. In the case of O=C(O)C1Nc2ccc(Br)cc2C2C=CCC12 (centres unmarked), the “hERG current change (%, negative = inhibition) at 1uM” value is reported as 7.54%. COC(=O)CCCC(=O)NC1CC(C)(C)Cc2c1cnn2-c1ccc(C)cc1 (centres unmarked) was tested, and the “hERG current change (%, negative = inhibition) at 1uM” value was 5.99%. CCC(Oc1cccc(C)c1)C(=O)Nc1ccccc1C(=O)N1CCOCC1 (centres unmarked) was tested, and the “hERG current change (%, negative = inhibition) at 1uM” value was 13.4%. CN1CCN(c2oc(Cc3cccc4ccccc34)nc2C#N)CC1 was tested, and the “hERG current change (%, negative = inhibition) at 1uM” value was 8.5%. O=[N+]([O-])c1ccc(C[n+]2cccc(O)c2)cc1.[Br-] was tested, and the “hERG current change (%, negative = inhibition) at 1uM” value was 3.9%. For CC(=O)c1ccc(OCC(C)Oc2ccc(C#N)cc2)cc1 (centres unmarked), the “hERG current change (%, negative = inhibition) at 1uM” value was 1.45%. For CCOc1ccc(OCC)c(NC(=O)CNS(=O)(=O)c2cccs2)c1, the “hERG current change (%, negative = inhibition) at 1uM” value was 7.48%. CCN(CC(=O)Nc1ccccc1C(F)(F)F)C(=O)CCc1nc2ccccc2c(=O)[nH]1 was tested, and the “hERG current change (%, negative = inhibition) at 1uM” value was 11.6%. With COc1ccc(NC(=O)/C(C#N)=C/c2ncc([N+](=O)[O-])n2C)c(OC)c1 the “hERG current change (%, negative = inhibition) at 1uM” value was 9.55%. O=[N+]([O-])c1ccccc1/C=N/n1c(C2CCCCC2)n[nH]c1=S was tested, and the “hERG current change (%, negative = inhibition) at 1uM” value was -3.78%. In the case of CCNC(=O)C(=O)NCC(c1cccs1)S(=O)(=O)c1ccc(C)cc1 (centres unmarked), the “hERG current change (%, negative = inhibition) at 1uM” value is reported as 9.52%. In the case of O=C(N/N=C/c1ccccc1)c1ccc(NC(=O)c2ccc(F)cc2)cc1, the “hERG current change (%, negative = inhibition) at 1uM” value is reported as 10.7%. CN(C)N=Nc1ccc(-c2cn(Cc3ccccc3)cn2)cc1 was tested, and the “hERG current change (%, negative = inhibition) at 1uM” value was 10.9%. O=Cc1c(OCc2ccccc2)ccc2ccccc12 was tested, and the “hERG current change (%, negative = inhibition) at 1uM” value was 13.5%.
